The list shows a part of the results.
How the values were obtained:
Assay in all cases: glycan array binding signal (z-score within array); higher = stronger binding
Conditions in all cases: glycan notation: IUPAC condensed, linker removed
[1] = target: Gal6S(b1-4)Glc6S
Method in brief: (§1)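 The binding signal is a Z-score computed within each array. Data were drawn from 3228 arrays in the Consortium for Functional Glycomics database, restricted to those with a known protein sequence. Scores were averaged over arrays of the same protein sequence at different concentrations or buffers, and over linkers, and negative values can be taken as non-binding.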

[2] = target: Gal6S(b1-4)GlcNAc
Method in brief: as §1

[3] = target: GalNAc(a1-3)Gal
Method in brief: as §1

[4] = target: GalNAc(a1-3)GalNAc
Method in brief: as §1

[5] = target: GalNAc(b1-3)Gal(a1-4)Gal(b1-4)GlcNAc
Method in brief: as §1

[6] = target: GalNAc(b1-4)GlcNAc
Method in brief: as §1

[7] = target: Glc(a1-4)Glc
Method in brief: as §1

[8] = target: Glc(a1-6)Glc(a1-6)Glc
Method in brief: as §1

[9] = target: Glc(b1-4)Glc
Method in brief: as §1

[10] = target: Glc(b1-6)Glc
Method in brief: as §1

[11] = target: GlcA(b1-3)Gal
Method in brief: as §1

[12] = target: GlcA(b1-6)Gal
Method in brief: as §1

[13] = target: GlcNAc(a1-3)Gal(b1-4)GlcNAc
Method in brief: as §1

[14] = target: GlcNAc(a1-6)Gal(b1-4)GlcNAc
Method in brief: as §1

[15] = target: GlcNAc(b1-2)Gal(b1-3)GlcNAc
Method in brief: as §1

[16] = target: GlcNAc(b1-2)Man(a1-3)[GlcNAc(b1-2)Man(a1-6)]Man(b1-4)GlcNAc(b1-4)GlcNAc
Method in brief: as §1

[17] = target: GlcNAc(b1-3)Gal
Method in brief: as §1

[18] = target: GlcNAc(b1-3)Gal(b1-3)GalNAc
Method in brief: as §1

[19] = target: GlcNAc(b1-3)Gal(b1-4)Glc
Method in brief: as §1

[20] = target: GlcNAc(b1-3)Gal(b1-4)GlcNAc
Method in brief: as §1

[21] = target: GlcNAc(b1-3)Gal(b1-4)GlcNAc(b1-3)Gal(b1-4)GlcNAc
Method in brief: as §1

[22] = target: GlcNAc(b1-3)GalNAc
Method in brief: as §1

[23] = target: GlcNAc(b1-3)[GlcNAc(b1-4)][GlcNAc(b1-6)]GlcNAc
Method in brief: as §1

[24] = target: GlcNAc(b1-3)[GlcNAc(b1-6)]Gal(b1-4)GlcNAc
Method in brief: as §1

[25] = target: GlcNAc(b1-3)[GlcNAc(b1-6)]GlcNAc
Method in brief: as §1

[26] = target: GlcNAc(b1-4)Gal(b1-4)GlcNAc
Method in brief: as §1

[27] = target: GlcNAc(b1-4)GlcNAc(b1-4)GlcNAc
Method in brief: as §1

[28] = target: GlcNAc(b1-4)GlcNAc(b1-4)GlcNAc(b1-4)GlcNAc(b1-4)GlcNAc
Method in brief: as §1

[29] = target: GlcNAc(b1-4)GlcNAc(b1-4)GlcNAc(b1-4)GlcNAc(b1-4)GlcNAc(b1-4)GlcNAc
Method in brief: as §1

[30] = target: GlcNAc(b1-4)[GlcNAc(b1-6)]GalNAc
Method in brief: as §1

[31] = target: GlcNAc(b1-6)Gal(b1-4)GlcNAc
Method in brief: as §1

[32] = target: GlcNAc(b1-6)GalNAc
Method in brief: as §1

[33] = target: Kdn(a2-3)Gal(b1-3)GlcNAc
Method in brief: as §1

[34] = target: Kdn(a2-3)Gal(b1-4)GlcNAc
Method in brief: as §1

[35] = target: Man(a1-2)Man(a1-2)Man(a1-3)Man
Method in brief: as §1

[36] = target: Man(a1-2)Man(a1-2)Man(a1-3)[Man(a1-2)Man(a1-3)[Man(a1-2)Man(a1-6)]Man(a1-6)]Man(b1-4)GlcNAc(b1-4)GlcNAc
Method in brief: as §1

[37] = target: Man(a1-2)Man(a1-2)Man(a1-3)[Man(a1-2)Man(a1-6)[Man(a1-3)]Man(a1-6)]Man(b1-4)GlcNAc(b1-4)GlcNAc
Method in brief: as §1

B1: STA (Solanum tuberosum) (protein)
chain: NASAPLPYPQCGLKKGGGKCIKTGECCSIWGWCGTTSDYCAPGYCQKQCPGPYPQGRCGWQANGKSCPTGTGQCCSNAGWCGTTSDYCAPNNCQSQCKLPPPPPSPPPPPPSPPPPSPPPPPPSPPPPSPSPPPPPPSPPPPSPPPPSPPPPSPPPPPSPSPPPPPPSPPPPPPPLPYPQCGMKKGGGKCIKTGECCSIWGWCGTTSKYCSPGYCQMQCPDPYPEGRCGWQANGKSCPTGTGQCCSNAGWCGTTSAYCAPVNCQAQCNTTTLTSPIKNRMRGIESFMLNVV
glycan array binding signal (z-score) [1]: -0.493
glycan array binding signal (z-score) [2]: -0.479
glycan array binding signal (z-score) [3]: -0.079
glycan array binding signal (z-score) [4]: -0.507
glycan array binding signal (z-score) [5]: 2.05
glycan array binding signal (z-score) [6]: 2.02
glycan array binding signal (z-score) [7]: -0.501
glycan array binding signal (z-score) [8]: -0.51
glycan array binding signal (z-score) [9]: -0.513
glycan array binding signal (z-score) [10]: -0.512
glycan array binding signal (z-score) [11]: -0.51
glycan array binding signal (z-score) [12]: -0.504
glycan array binding signal (z-score) [13]: 2.22
glycan array binding signal (z-score) [14]: -0.463
glycan array binding signal (z-score) [15]: -0.506
glycan array binding signal (z-score) [16]: -0.331
glycan array binding signal (z-score) [17]: -0.504
glycan array binding signal (z-score) [18]: -0.481
glycan array binding signal (z-score) [19]: -0.502
glycan array binding signal (z-score) [20]: 1.24
glycan array binding signal (z-score) [21]: 1.75
glycan array binding signal (z-score) [22]: -0.508
glycan array binding signal (z-score) [23]: -0.491
glycan array binding signal (z-score) [24]: 2.63
glycan array binding signal (z-score) [25]: -0.269
glycan array binding signal (z-score) [26]: 2.38
glycan array binding signal (z-score) [27]: 2.13
glycan array binding signal (z-score) [28]: 2.23
glycan array binding signal (z-score) [29]: 2.56
glycan array binding signal (z-score) [30]: 1.43
glycan array binding signal (z-score) [31]: 1.96
glycan array binding signal (z-score) [32]: 2.41
glycan array binding signal (z-score) [33]: -0.512
glycan array binding signal (z-score) [34]: 2.19
glycan array binding signal (z-score) [35]: -0.509
glycan array binding signal (z-score) [36]: 0.273
glycan array binding signal (z-score) [37]: -0.15

Source: the supplement of paper PMC8728848
